Data reported in the supplement of paper PMC11417369.
± gives the standard deviation of the averaged measurements. The list shows a part of the results.

Tested on: PfAP2-G AP2 domain (GST-tagged)
Assay: gcPBM binding intensity (ln(normalized median fluorescence intensity)); higher = stronger DNA binding
Method in brief: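 DNA-binding domains from P. falciparum, fused to GST and produced in E. coli, were put on an Agilent 4 × 180k double-stranded probe array for 1 h in 1× PBS holding 1% milk, 0.2 mg/ml BSA, 0.5% salmon testes DNA and 0.03% Triton X-100. Probes were primer-extended, 36 bp long and drawn from intergenic genomic regions, with negative controls included. After Alexa488 anti-GST antibody detection and a 488 nm scan, binding intensity was set as the highest Masliner-normalised natural-log median intensity across replicate spots of either probe orientation.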

Row | Sequence | gcPBM binding intensity (ln)
1 | ATAATGGAAAAAAAATATAATAATACGAAATAGGAA [TGCATGCA_negctrl_site64] | 10.01 ± 0.049
2 | TATTTGGGTATTTTTACACACATTAATATATATATA [CACACA_site9114] | 10 ± 0.33
3 | AGTTAAATGAATCAATACATAAATATGTATATATAT [TGCATGCA_negctrl_site539] | 9.595 ± 0.078
4 | TTTTTTTAATAAATTTATAACAATATGATAGGTGAC [CACACA_negctrl_site1783] | 10.2 ± 0.34
5 | TGAATCAATTGTTGCTGTACATAAGGTATACAATAA [XGTACX_site5127] | 11 ± 0.59
6 | ATTTGACACGTATATGCACACACCCGTAAGTGTCCA [CACACA_site8891] | 10.5 ± 0.3
7 | TATTAACTCAATAGCGCACACTTTTAATATTTTATA [CACACA_site4973] | 10.14 ± 0.078
8 | AAAAATAAAATAAAATAAAATAAAAATAAAGAAAAA [CACACA_negctrl_site808] | 9.39 ± 0.16
9 | ACAAATAAAAAAATTACACACATATATAATATATAT [CACACA_site1361] | 9.71 ± 0.11
10 | AGTAGTCTGGAGAAAAGTACACAGTATCTGGTAACA [XGTACX_site2034] | 11.5 ± 1
11 | TTAATTCTATACATAAATTATGTTTACATAAAGAAT [GTGCAC_negctrl_site246] | 9.84 ± 0.099
12 | TTTCTTTATTTATAATAATTTTTTATTAAAAATAGA [CACACA_negctrl_site1610] | 9.55 ± 0.13
13 | AGTGCATAATATTTATGTACGTATCACATATATTTT [XGTACX_site5166] | 11.3 ± 0.84
14 | AATAAATGTCTGTTAATGCACACGATATGTCTATAT [CACACA_site2351] | 10.03 ± 0.099
15 | TTATAAATTTTTAATAGTACATAAAATTAAAGGTAA [XGTACX_site760] | 11.2 ± 0.67
16 | ATGTGATAATTTAGGAGTACTGTCATAAGCATTTCT [XGTACX_site3091] | 11.4 ± 0.95
17 | GATATATTTTGTTATGTAGATGTTGGTAGGAATTTT [GTGCAC_negctrl_site485] | 9.945 ± 0.049
18 | GTATTTATATGATTAACACACATATGTGGATTAATA [CACACA_site1315] | 9.99 ± 0.11
19 | ATGTATCGTAACAAATGTACAAGAGGATGTTTAGAC [XGTACX_site3355] | 11.1 ± 0.71
20 | TATATAACTACAAGAACACACATATAAATATAAATA [CACACA_site7210] | 9.955 ± 0.021
21 | GTAATTAAGATATATACACACAAAGGCTATTAAATA [CACACA_site6604] | 9.985 ± 0.021
22 | TATTGATAAAAAATATGTACATATATACATATATAT [XGTACX_site3821] | 11.1 ± 0.61

Row | Sequence | gcPBM binding intensity (ln)
23 | ATATATATATATATATGTACGTAAACAAAAATTTAT [XGTACX_site6780] | 11.4 ± 0.91
24 | ATATACATATTTTTGACACACATTAGGAAAATATAT [CACACA_site4123] | 10.1 ± 0.15
25 | ATGTAATAAATACTACGTACATATATATGTGTTAAT [XGTACX_site3265] | 11.3 ± 0.73
26 | ATATATAAATATAGCATACACACAAAAAAATAAAAT [CACACA_site2332] | 10 ± 0.11
27 | CAACAAAAGAAACACACACACACAAACACAAAAAAA [CACACA_site3389] | 10.3 ± 0.28
28 | TGTATACCTTAATATACACACATACATATATATATA [CACACA_site8370] | 10.3 ± 0.5
29 | GGATATATTATATGTACACACATATATAACGGATAT [CACACA_site1309] | 11.5 ± 0.8
30 | TATTATTTATATGATACACACGTACATATACACATA [CACACA_site9275] | 11.3 ± 0.87
31 | TTCATTAAAACGAATACACACATAAATATATAAAAG [CACACA_site4824] | 10.19 ± 0.021
32 | AAATATATATATATTACACACTATATATTTATTTAT [CACACA_site681] | 9.67 ± 0.16
33 | CATATCAAAAAAAAATGTACACGTATATACAATACA [XGTACX_site2660] | 11.4 ± 0.76
34 | TTTTAAAATAAAAAAATAAAAAAAGGGGAAAAAAAA [CACACA_negctrl_site847] | 9.6 ± 0.33
35 | ATAACTAAATTATATTGTACAAAATAATTATATATT [XGTACX_site1188] | 10.7 ± 0.3
36 | ATATACTTATATATTGCACACATCTAATATTTTGAA [CACACA_site3165] | 10.1 ± 0.23
37 | TATAATATGTTTGATGGTACACGTAAACACCTTGCA [XGTACX_site1643] | 11.1 ± 0.68
38 | TTTAATCAACAAAATCTACACACTAATATGAAATAT [CACACA_site9250] | 9.81 ± 0.028
39 | ATACACGTTTTACAATGTACAGAAAGTATACATAAT [XGTACX_site4585] | 10.8 ± 0.36
40 | AAGAATTTTCGATTTGCACACATTTGTAAAATAAAA [CACACA_site2354] | 10.1 ± 0.23
41 | GTATTTTTTTTCTTTTGTACATATATATAAAGAATA [XGTACX_site4569] | 11.1 ± 0.71
42 | TATTATATATATAAATGTACATATTATTTTTCTTTT [XGTACX_site8670] | 11.1 ± 0.51
43 | CCCACAATGGTTTATATACACACTGTTGCAAATTCT [CACACA_site3066] | 10.18 ± 0.092
44 | ATTGAAAAAATACAATGTACATAGTAATACAAAGAA [XGTACX_site4142] | 10.8 ± 0.43

Row | Sequence | gcPBM binding intensity (ln)
45 | AATTATACTCACGTTACACACACACTAGATATATAT [CACACA_site6133] | 10.29 ± 0.099
46 | TTTTTTTTTTTTTTTTGTACATATATATAAAAAATA [XGTACX_site2772] | 10.8 ± 0.84
47 | TAATATTACATTTATTGTACTTTGTTTTTATTTTAT [XGTACX_site1605] | 11.1 ± 0.62
48 | AAAAAAAAAAATTGCACACAAAAAAAAAAAAAAAAA [CACACA_site2073] | 10.1 ± 0.51
49 | TTAAAAATTAAAAGTAGTACATATAATATAAACATT [XGTACX_site424] | 11.5 ± 0.76
50 | TAATACTTAATGAACACATGCACATATACATAGTAT [TGCATGCA_site496] | 10.3 ± 0.2
51 | TGTTTCTAAGAATTTACACACAAAATATTTCTACAT [CACACA_site7846] | 9.91 ± 0.11
52 | ATAATTATACAAAAGCGTACACGATATAAATCTACG [XGTACX_site8115] | 11.6 ± 0.95
53 | CTTAAATCCATAATATGTACTTAAAAAGAAAAAATA [XGTACX_site4765] | 11.3 ± 0.68
54 | AGACAATTTTTTAGTACACACATATAGATATATAAA [CACACA_site6832] | 11.4 ± 1
55 | TTATAAAAAAAAAAAAAAAAAAAAACCAATATAATA [CACACA_negctrl_site968] | 9.69 ± 0.12
56 | TTTATTCTAAAATATTAAAAATGATTTGTTTTTTCA [CACACA_negctrl_site1751] | 9.51
57 | GTATTATAAAAAGGAAGTACATATATACATATTATA [XGTACX_site1271] | 11.3 ± 0.75
58 | ATATGAACATTAAAAAAGTAAGGTATTCTCCCCTCT [CACACA_negctrl_site1299] | 10.06 ± 0.092
59 | AAATAAAGAAATGCAAGTACATACTAAACTAATCCA [XGTACX_site1209] | 11.2 ± 0.59
60 | ATTTTCCCTAGAATATGTACACATAGTAAATATTAT [XGTACX_site7499] | 11.4 ± 0.83
61 | ATATATAAATATGAAACACACATTCTATTTAATTCG [CACACA_site1450] | 9.76 ± 0.028
62 | CAGATAAATAAACACACACACACATATATATATATA [CACACA_site9311] | 10.2 ± 0.59
63 | TCTTAAATTATGATAAAATATAATAAATAAATAAAT [CACACA_negctrl_site1520] | 9.485 ± 0.078
64 | TTGTTTTATACATAGTGTACATATAAAAATTTTTTT [XGTACX_site7549] | 11.4 ± 0.88
65 | ATATATATTATAATCTGTACATAAATATATAATAAA [XGTACX_site5425] | 11 ± 0.64
66 | TATGTTTCTATATATACATGCAAGAAGAAATGTACT [TGCATGCA_site891] | 10.2 ± 0.12

Row | Sequence | gcPBM binding intensity (ln)
67 | ATGTCACAATTTTTCACACACAAAATTTATATACAT [CACACA_site2030] | 10.2 ± 0.12
68 | AAAAAAAAAAAAGAAAAATATATATATAAATAAATA [GTGCAC_negctrl_site569] | 9.52 ± 0.028
69 | ATATGTACAAATTATACACACATGTACAATTATATA [CACACA_site1253] | 11.3 ± 0.79
70 | TTACATACAATTGGTGTGCACATATATATATATATA | 10.7 ± 0.56
71 | GTTAATATTTTTGGGGGTACTTAAAAAAAAAAAAAA [XGTACX_site1477] | 11.7 ± 0.91
72 | AATTTAAAAAATAATTGTACAAAAAAAAAAAATCAG [XGTACX_site4576] | 11.2 ± 0.81
73 | GAATATTAATTCAAGTGTACAAATATATATATAATT [XGTACX_site5103] | 11 ± 0.47
74 | CAAAAGGATAGGCACACACACACACCGATATATATA [CACACA_site8685] | 10.3 ± 0.28
75 | ATAAAAATTTATATATGTACTTAATTTTTAATTTTT [XGTACX_site7482] | 11.3 ± 0.99
76 | ATAATATAAATATACACACACACATATATATATATA [CACACA_site2905] | 10 ± 0.3
77 | TAATAAGGAATTTATAGTACATATTCATATGTTTTA [XGTACX_site2331] | 10.8 ± 0.59
78 | TTCTTGTATATTCATAGTACATATAATGTCGTGTTA [XGTACX_site8991] | 10.9 ± 0.64
79 | TATGTTTTTGAATGAGTGCATTAAAATAAAACATTT | 10.2 ± 0.27
80 | ATTATTTATATTTGGAGTACTTATAATATTTTTATA [XGTACX_site1289] | 11.6 ± 0.93
81 | AGTGTAAGCTAAGTGGTGCGTTGAATAAGGTTTTTT [GTGCAC_site9951] | 10.03 ± 0.014
82 | TATAGGTATTTGTATACACACAAATGTATATATCTA [CACACA_site6713] | 9.985 ± 0.021
83 | CTTTATATATTTTATTGTACTTAAAAAAAAAAAAAA [XGTACX_site2134] | 11.4 ± 1.1
84 | AAAAAATATGCATATACACACATATGTATAAATAAC [CACACA_site7090] | 10.21 ± 0.099
85 | AAAATATTTATTCCTAGTACTTACCATTATATATAT [XGTACX_site363] | 10.8 ± 0.26
86 | AAAAAAAAATGAAAAGAAAAAAAAAGAAAAAAGGGA [CACACA_negctrl_site287] | 9.825 ± 0.035
87 | TATATTTATACTTATACACACATTATTGAATTAACC [CACACA_site934] | 10.1 ± 0.11
88 | AATGAGCTTTTTAAAAGTACTAAATATAAATAAATA [XGTACX_site3632] | 11 ± 0.58
